Some of the results follow. The full chains were built here from the parent and the listed change. Values near 0.05 are background.
B1: TEV protease; numbered along this chain (parent)
chain: MGESLFKGPRDYNPISSSICHLTNESDGHTTSLYGIGFGPFIITNKHLFRRNNGTLVVQSLHGVFKVKDTTTLQQHLVDGRDMIIIRMPKDFPPFPQKLKFREPQREERICLVTTNFQTKSMSSMVSDTSCTFPSGDGIFWKHWIQTKDGQCGSPLVSTRDGFIVGIHSASNFTNTNNYFTSVPKNFMELLTNQEAQQWVSGWRLNADSVLWGGHKVFMVKPEEPFQPVKEATQL

Variants of: B1
Experiment: raw area under fraction-flipped curve 0-4 h after induction (AUC4h, not background-subtracted), DNA-recorder readout of cleavage of the substrate (dimensionless); higher = more cleavage of the substrate by the protease variant
Conditions: temperature: 34 °C; time window: 0-4 h after rhamnose induction
Experimental: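 In vivo DNA recorder in E. coli TOP10(DE3) ΔrhaA at 34 °C. Each TEVp single-site mutant (parent TEVp 0) is paired with a single-site variant of the 7-mer TEVs (canonical ENLYFQ|S). The substrate sits between flexible linkers in a Bxb1-sfGFP-TEVs-SsrA fusion, so cleavage stabilises Bxb1 and speeds flipping of a recombination array, read by NGS. The value is the raw area under the fraction-flipped curve over 0-4 h after rhamnose induction (AUC4h), with ≥20 reads per time point. It is not background-subtracted; inactive controls average about 0.047.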
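Also: Bxb1 expression induced with 0.2% (w/v) L-rhamnose at OD600 near 0.5, cultures sampled hourly, flipped fraction per protease–substrate barcode pair counted by paired-end Illumina sequencing.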

| Variant | area with substrate ENLYFCS | area with substrate ENLYFDS | area with substrate ENLYFES | area with substrate ENLYFFS | area with substrate ENLYFHS | area with substrate ENLYFIS | area with substrate ENLYFLS | area with substrate ENLYFMS | area with substrate ENLYFNS | area with substrate ENLYFPS | area with substrate ENLYFRS | area with substrate ENLYFSS | area with substrate ENLYFTS | area with substrate ENLYFVS | area with substrate ENLYFWS | area with substrate ENLYFYS | area with substrate ENLYFKS | area with substrate ENLYFGS |
| --- | --- | --- | --- | --- | --- | --- | --- | --- | --- | --- | --- | --- | --- | --- | --- | --- | --- | --- |
| MGESLFKGPRDYNPISSSICHLTNESDGHTTSLYGIGFGPFIIKNKHLFRRNNGTLVVQSLHGVFKVKDTTTLQQHLVDGRDMIIIRMPKDFPPFPQKLKFREPQREERICLVTTNFQTKSMSSMVSDTSCTFPSGDGIFWKHWIQTKDGQCGSPLVSTRDGFIVGIHSASNFTNTNNYFTSVPKNFMELLTNQEAQQWVSGWRLNADSVLWGGHKVFMVKPEEPFQPVKEATQL [T44K] | 0.0265 | 0.0402 | 0.048 | 0.0456 | 0.0403 | 0.0523 | 0.0458 | 0.0422 | 0.0476 | 0.041 | 0.0329 | 0.0424 | 0.0415 | 0.0459 | 0.0291 | – | – | – |
| MGESLFKGPRDYNPISSSICWLTNESDGHTTSLYGIGFGPFIITNKHLFRRNNGTLVVQSLHGVFKVKDTTTLQQHLVDGRDMIIIRMPKDFPPFPQKLKFREPQREERICLVTTNFQTKSMSSMVSDTSCTFPSGDGIFWKHWIQTKDGQCGSPLVSTRDGFIVGIHSASNFTNTNNYFTSVPKNFMELLTNQEAQQWVSGWRLNADSVLWGGHKVFMVKPEEPFQPVKEATQL [H21W] | 0.0545 | 0.0679 | 0.0611 | – | 0.0342 | – | 0.0307 | 0.0648 | 0.06 | 0.0538 | 0.0549 | 0.0645 | 0.0632 | 0.0467 | 0.0557 | 0.0532 | – | – |
| MGESLFKGPRDYNPISSSICHLTNESDGHTTSLYGIGFGPWIITNKHLFRRNNGTLVVQSLHGVFKVKDTTTLQQHLVDGRDMIIIRMPKDFPPFPQKLKFREPQREERICLVTTNFQTKSMSSMVSDTSCTFPSGDGIFWKHWIQTKDGQCGSPLVSTRDGFIVGIHSASNFTNTNNYFTSVPKNFMELLTNQEAQQWVSGWRLNADSVLWGGHKVFMVKPEEPFQPVKEATQL [F41W] | 0.041 | 0.0595 | 0.0486 | 0.0621 | 0.0628 | 0.0586 | 0.0721 | – | 0.0598 | 0.0475 | 0.0561 | 0.0539 | 0.0637 | – | 0.057 | 0.0192 | 0.0681 | – |
| MGESLFKGPRDYNPISSSICHLINESDGHTTSLYGIGFGPFIITNKHLFRRNNGTLVVQSLHGVFKVKDTTTLQQHLVDGRDMIIIRMPKDFPPFPQKLKFREPQREERICLVTTNFQTKSMSSMVSDTSCTFPSGDGIFWKHWIQTKDGQCGSPLVSTRDGFIVGIHSASNFTNTNNYFTSVPKNFMELLTNQEAQQWVSGWRLNADSVLWGGHKVFMVKPEEPFQPVKEATQL [T23I] | 0.0674 | 0.0651 | – | 0.0756 | – | 0.0535 | 0.0506 | 0.0738 | 0.0682 | 0.0547 | 0.0672 | 0.0557 | 0.0961 | – | 0.0705 | 0.0507 | 0.0681 | – |
| MGESLFKGPPDYNPISSSICHLTNESDGHTTSLYGIGFGPFIITNKHLFRRNNGTLVVQSLHGVFKVKDTTTLQQHLVDGRDMIIIRMPKDFPPFPQKLKFREPQREERICLVTTNFQTKSMSSMVSDTSCTFPSGDGIFWKHWIQTKDGQCGSPLVSTRDGFIVGIHSASNFTNTNNYFTSVPKNFMELLTNQEAQQWVSGWRLNADSVLWGGHKVFMVKPEEPFQPVKEATQL [R10P] | 0.0641 | 0.0541 | 0.0691 | 0.0536 | 0.0544 | 0.0589 | – | 0.0649 | – | 0.0526 | 0.0765 | – | 0.0677 | – | 0.0623 | – | 0.0821 | – |
| MGESLFKGPRDYNPISSSICHLTNESDGHTTSLYGIGFGPFIITNKHLKRRNNGTLVVQSLHGVFKVKDTTTLQQHLVDGRDMIIIRMPKDFPPFPQKLKFREPQREERICLVTTNFQTKSMSSMVSDTSCTFPSGDGIFWKHWIQTKDGQCGSPLVSTRDGFIVGIHSASNFTNTNNYFTSVPKNFMELLTNQEAQQWVSGWRLNADSVLWGGHKVFMVKPEEPFQPVKEATQL [F49K] | 0.0526 | – | 0.0554 | 0.0569 | 0.0548 | 0.0464 | 0.0517 | 0.0523 | 0.0623 | 0.0585 | 0.084 | 0.0416 | 0.0511 | 0.0256 | 0.0506 | 0.0376 | 0.0538 | – |
| MGESLFKGPRDYNPISSSICHLTNESDGHWTSLYGIGFGPFIITNKHLFRRNNGTLVVQSLHGVFKVKDTTTLQQHLVDGRDMIIIRMPKDFPPFPQKLKFREPQREERICLVTTNFQTKSMSSMVSDTSCTFPSGDGIFWKHWIQTKDGQCGSPLVSTRDGFIVGIHSASNFTNTNNYFTSVPKNFMELLTNQEAQQWVSGWRLNADSVLWGGHKVFMVKPEEPFQPVKEATQL [T30W] | 0.0481 | – | 0.0708 | 0.0703 | – | 0.0569 | 0.064 | 0.0554 | 0.0791 | 0.0581 | 0.0485 | 0.057 | 0.0543 | 0.0677 | – | – | 0.073 | – |
| MGESLFKGPRDYNPISSSICHLTNESDGHFTSLYGIGFGPFIITNKHLFRRNNGTLVVQSLHGVFKVKDTTTLQQHLVDGRDMIIIRMPKDFPPFPQKLKFREPQREERICLVTTNFQTKSMSSMVSDTSCTFPSGDGIFWKHWIQTKDGQCGSPLVSTRDGFIVGIHSASNFTNTNNYFTSVPKNFMELLTNQEAQQWVSGWRLNADSVLWGGHKVFMVKPEEPFQPVKEATQL [T30F] | 0.0585 | – | 0.0836 | 0.0712 | 0.055 | 0.0559 | – | 0.0598 | 0.0651 | 0.0608 | 0.0673 | 0.0509 | 0.0583 | – | 0.0543 | 0.0576 | 0.0638 | 0.0543 |
| MGESLFKGPRDYNPISQSICHLTNESDGHTTSLYGIGFGPFIITNKHLFRRNNGTLVVQSLHGVFKVKDTTTLQQHLVDGRDMIIIRMPKDFPPFPQKLKFREPQREERICLVTTNFQTKSMSSMVSDTSCTFPSGDGIFWKHWIQTKDGQCGSPLVSTRDGFIVGIHSASNFTNTNNYFTSVPKNFMELLTNQEAQQWVSGWRLNADSVLWGGHKVFMVKPEEPFQPVKEATQL [S17Q] | 0.0631 | 0.0457 | 0.0608 | 0.0769 | 0.0632 | 0.0588 | 0.0637 | 0.0723 | 0.0618 | 0.062 | – | 0.053 | 0.0478 | 0.0554 | 0.04 | – | 0.0552 | 0.0407 |
